From the supplement of paper PMC11876631
± gives the standard deviation of the averaged measurements. Laboratory Escherichia coli strains with one amino-acid change in an essential protein, pooled on minimal glucose agar with carbenicillin or gentamicin at twice the control MIC (plus kanamycin and chloramphenicol for the plasmids), 48 h. Fold change of barcode share against drug-free plates; higher = less susceptible. Active = above 20 in both replicates (the paper's putatively resistant). '<' = one read or none on drug, '>' = one read or none on a drug-free plate. Shares are relative, so most strains fall below 1 when a few take over. Listed are strains with at least 15 reads on both drug-free plates, and hits; most hits rest on fewer reference reads. Replicate rank correlation about 0.5. Edits are read from barcodes.

B1: fes; numbered along this chain (parent)
chain: MTALKVGSESWWQSKHGPEWQRLNDEMFEVTFWWRDPQGSEEYSTIKRVWVYITGVTDHHQNSQPQSMQRIAGTNVWQWTTQLNANWRGSYCFIPTERDDIFSVPSPDRLELREGWRKLLPQAIADPLNLQSWKGGRGHAVSALEMPQAPLQPGWDCPQAPEIPAKEIIWKSERLKKSRRVWIFTTGDATAEERPLAVLLDGEFWAQSMPVWPVLTSLTHRQQLPPAVYVLIDAIDTTHRAHELPCNADFWLAVQQELLPLVKAIAPFSDRADRTVVAGQSFGGLSALYAGLHWPERFGCVLSQSGSYWWPHRGGQQEGVLLEKLKAGEVSAEGLRIVLEAGIREPMIMRANQALYAQLHPIKESIFWRQVDGGHDALCWRGGLMQGLIDLWQPLFHDRS
B2: thrC; numbered along this chain (parent)
chain: MKLYNLKDHNEQVSFAQAVTQGLGKNQGLFFPHDLPEFSLTEIDEMLKLDFVTRSAKILSAFIGDEIPQEILEERVRAAFAFPAPVANVESDVGCLELFHGPTLAFKDFGGRFMAQMLTHIAGDKPVTILTATSGDTGAAVAHAFYGLPNVKVVILYPRGKISPLQEKLFCTLGGNIETVAIDGDFDACQALVKQAFDDEELKVALGLNSANSINISRLLAQICYYFEAVAQLPQETRNQLVVSVPSGNFGDLTAGLLAKSLGLPVKRFIAATNVNDTVPRFLHDGQWSPKATQATLSNAMDVSQPNNWPRVEELFRRKIWQLKELGYAAVDDETTQQTMRELKELGYTSEPHAAVAYRALRDQLNPGEYGLFLGTAHPAKFKESVEAILGETLDLPKELAERADLPLLSHNLPADFAALRKLMMNHQ

Variants of: B1
Assay: barcode share on antibiotic plates over drug-free plates; higher = less susceptible
Details: with Escherichia coli (laboratory strain); antibiotic: carbenicillin; 2× MIC (3.1 µg/mL)
Description: (§1)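 A pool of E. coli strains, each edited to carry one amino-acid change in an essential protein, was grown for 48 h on minimal glucose agar with or without antibiotic; strain barcodes were sequenced; mean of two replicates.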

Variant	fold change of barcode share
I183W	0.957 ± 0.46
I183A	0.583 ± 0.085
I183P	0.709 ± 0.23
L258W	0.514 ± 0.27
L258Q	0.708 ± 0.1
L258A	0.465 ± 0.25
V262A	0.728 ± 0.36
V262P	1.81 ± 0.83
V262Q	1.23 ± 0.49
V262W	1.27 ± 0.22
I94A	1.41 ± 1.1
L339W	1.47 ± 0.52
L339P	> 30.3 [active]
L339A	5.13 ± 3.8
V301P	2.33 ± 0.52
V301Q	2.86 ± 0.18
V301D	> 38.5 [active]
V301A	4.2 ± 1.8
V301W	> 60.4 [active]

Same assay, conditions: with Escherichia coli (laboratory strain); antibiotic: gentamicin; 2× MIC (MIC 0.45 µg/mL)

Variant	fold change of barcode share
I183W	0.0282 ± 0.032
I183D	0.148 ± 0.15
I183A	0.0472 ± 0.029
I183P	0.228 ± 0.22
L258W	0.0444 ± 0.038
L258Q	0.0413 ± 0.043
L258A	0.0226 ± 0.018
V262A	0.0437 ± 0.054
V262P	0.0986 ± 0.11
V262Q	0.0838 ± 0.077
V262W	0.159 ± 0.17
I94A	0.023 ± 0.011
L339W	0.252 ± 0.23
L339A	0.0774 ± 0.06
V301P	0.106 ± 0.11
V301Q	0.0849 ± 0.06
V301A	0.0713 ± 0.038

Variants of: B2
Assay: as above
Details: with Escherichia coli (laboratory strain); antibiotic: carbenicillin; 2× MIC (3.1 µg/mL)
Description: as §1

Variant	fold change of barcode share
L130Q	0.33 ± 0.048
L130A	0.554 ± 0.28
L130D	> 32.8 [active]
L130P	0.575 ± 0.16
V279Q	1.52 ± 0.16
V279D	0.912 ± 0.18
V279W	0.842 ± 0.15
V279A	0.839 ± 0.18
V279P	1.24 ± 0.58

Same assay, conditions: with Escherichia coli (laboratory strain); antibiotic: gentamicin; 2× MIC (MIC 0.45 µg/mL)

Variant	fold change of barcode share
L130Q	0.0242 ± 0.0021
L130A	0.0177 ± 0.014
L130P	0.0227 ± 0.013
V279Q	0.023 ± 0.012
V279D	0.0105 ± 0.0054
V279W	0.0169 ± 0.013
V279A	0.0353 ± 0.046
V279P	0.015 ± 0.0071
